Results reported in the supplement of paper PMC9334596.
Where “and” joins values, the source holds several entries; their conditions need not be identical. Equal entries are not always repeated. Whole data set: some 5,300 compounds, median “PER2::LUC luminescence relative to vehicle control” near 0.96, cut for the highest 2% near 1.3. This is one part of the list.

Test system: mPer2Luc MEF
Assay: PER2::LUC luminescence relative to vehicle control (fold of vehicle); higher = higher PER2::LUC reporter signal
Conditions: 10 µM
Method in brief: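 Mouse embryonic fibroblasts carrying the mPer2Luc reporter were seeded at ~3000 cells per well in 384-well plates, 48 h before compounds from commercial libraries were added at 10 μM. Cells were grown in DMEM with 10% FBS at 37 °C and 5% CO2. Luminescence was read with the ONE-Glo luciferase assay system 24 h and 30 h after treatment, followed by an alamarBlue viability assay. The value is PER2::LUC luminescence as fold of vehicle control.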

Structure (SMILES) | PER2::LUC luminescence (time after treatment 24 h) | PER2::LUC luminescence (time after treatment 30 h)
NC1(C(=O)O)C[C@@H](C(=O)O)[C@H](C(=O)O)C1 (racemic) | 0.98 | 0.892
OCC1OC(O)CC(O)C1O (stereo unspecified) | 1.15 | 0.973
Nc1nc2c(cnn2CCc2ccccc2)c2nc(-c3ccco3)nn12 | 0.814 | 0.977
CCOC(=O)Nc1nc2ccccc2[nH]1 | 1.08 | 1.03
C=C/C(C)=C/[C@@]1(C)SC(=O)C(C)=C1O | 0.948 | 1.05
CC(C)(C)c1cc(NC(=O)Nc2ccc(-c3cn4c(n3)sc3cc(OCCN5CCOCC5)ccc34)cc2)no1 | 0.386 | 0.496
COc1ccc(-c2oc3cc(OC)c(OC)c(OC)c3c(=O)c2OC)cc1OC | 0.719 | 0.72
O=C(CCBr)N1CCN(C(=O)CCBr)CC1 | 1.03 | 0.664
CNC(=O)c1ccc(N2C(=S)N(c3ccc(C#N)c(C(F)(F)F)c3)C(=O)C2(C)C)cc1F | 1.11 and 1.09 | 1.01 and 0.99
CCCCC1C(=O)N(c2ccccc2)N(c2ccc(O)cc2)C1=O (stereo unspecified) | 0.817 | 0.755
N[C@H]1CONC1=O | 1.01 and 1.09 | 0.967 and 1.11
COc1cc(OC)c(NC(=O)Nc2cc(C)on2)cc1Cl | 1.02 | 1.06
COc1cc(OC)c2ccc(=O)oc2c1 | 0.858 | 0.875
O[C@H]([C@H](O)[C@@H]1CO1)[C@H]1CO1 | 1.11 | 0.895
CCN(CC)C(=O)Nc1ccc(OCC(O)CNC(C)(C)C)c(C(C)=O)c1 (stereo unspecified) | 1.19 | 1.1
Cc1cc(NC(=O)NCCN2CCC(O)(Cc3ccccc3)CC2)c2ccccc2n1 | 0.918 | 0.865
Cc1cc(O)c2c(c1O)C(=O)c1c(O)cc(C)c(O)c1C2=O | 1 | 1
COC(=O)C1=CO[C@@H](O[C@@H]2O[C@H](CO)[C@@H](O)[C@H](O)[C@H]2O)[C@H]2[C@@H]1C(=O)C[C@@H]2C | 0.968 | 0.979
COC(=O)C[C@H]1C2(C)CC34OC5(C)O[C@@]6([C@H](OC(C)=O)C(OC(C)=O)[C@]7(C)C(/C(=C(/O)C(C)C)C(=O)O[C@H]7c7ccoc7)[C@@]6(O5)[C@H](OC(C)=O)[C@@]3(O)C2OC(=O)C(C)C)[C@]14C (stereo partly specified) | 0.773 | 0.768
COc1cc2nc(N3CCN(C(=O)C4COc5ccccc5O4)CC3)nc(N)c2cc1OC (stereo unspecified) | 0.798 | 0.903
CC(=O)Nc1ccc(OC(=O)c2ccccc2O)cc1 | 0.934 | 1.02
O=C(O)c1cc(=O)c(O)c2c(O)c(O)c(O)cc2c1 | 0.975 | 0.906
NC[C@@](O)(c1ccc(Cl)cc1)c1ccc(-c2cn[nH]c2)cc1 | 0.147 | 0.218
O=c1c(O)c(-c2ccc(O)cc2)oc2cc(O)cc(O)c12 | 1.01 | 0.989
O=c1nc2ccccc2c2n1CC(CN1CCN(c3ccccc3)CC1)N2 (stereo unspecified) | 1.04 | 1.03
O=P(O)(O)C(O)(Cn1ccnc1)P(=O)(O)O | 0.964 | 0.93
O=C(c1cc(O)c(O)c([N+](=O)[O-])c1)c1ccccc1F | 0.942 | 1.01
CCOC(=O)c1ccc(N(C)c2csc(-c3ccccc3)n2)cc1 | 1.19 | 1.58
